{"source": "PubChem BioAssay AID1508623", "about": "(National Center for Advancing Translational Sciences (NCATS), 2021)", "note": "The campaign covered roughly 48,000 compounds. About 450 (0.94%) were called active. Not shown: some 19% with an inconclusive outcome. The call rests on the fitted dose curve; in most records, active means well fitted inhibition curve with a large enough effect; inconclusive means small, poorly fitted or top-dose-only effect; inactive means no such curve, though single readings can be large or run the other way. The list shows a part of the results. Potency means the concentration at half of the fitted maximal effect.", "data": [{"test": "Primary qHTS for Identification of Small Molecule Inhibitors of Huntingtin Promoter Activity; further: nearly all actives have a fitted effect of over 50% in size", "details": "HEK293 HTT promoter firefly luciferase reporter (activity 0% = vehicle and -100% = no light), 24 h; series mostly up to 57.5 µM; activity change, negative = inhibition: at the top concentration", "procedure,_shortened": "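Quantitative HTS used concentration series of up to 57.5 uM final on HEK293 luciferase reporter cells, 24 h at 37 degrees C. Readout was Dual-Glo firefly luminescence.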", "values": [{"smiles": "CCC1CN(C(=O)N2CCC(C(=O)NCCN(CC)CC)CC2)c2ccccc2O1", "note": "(centres undefined)", "activity change, negative = inhibition": "inactive: -1.07%"}, {"smiles": "COc1ccc(-c2onc(C)c2C)cc1S(=O)(=O)NCC1CCN(Cc2ccccc2F)CC1", "activity change, negative = inhibition": "inactive: -28.7%"}, {"smiles": "Cc1ccc(Oc2c(C(F)(F)F)oc3cc(OCC(=O)NC4CCCCC4)ccc3c2=O)cc1", "activity change, negative = inhibition": "inactive: -4.36%"}, {"smiles": "CCCN1C(=O)C(O)(CC(=O)c2ccc(CC)cc2)c2ccccc21", "note": "(centres undefined)", "activity change, negative = inhibition": "inactive: -18.8%"}, {"smiles": "COc1ccc(C(=O)N(Cc2sccc2C)C2CCS(=O)(=O)C2)cc1Cl", "note": "(centres undefined)", "activity change, negative = inhibition": "inactive: -14%"}, {"smiles": "CCN1CCN(C(=O)c2ccc3c(c2)N(Cc2ccc(Cl)cc2)C(=O)c2ccccc2S3(=O)=O)CC1", "activity change, negative = inhibition": "inactive: -14.8%"}, {"smiles": "O=C(NCc1ccc2c(c1)OCO2)c1ccc2c(c1)N(Cc1cccc(Cl)c1)C(=O)c1ccccc1S2", "activity change, negative = inhibition": "inactive: -22.8%"}, {"smiles": "Cc1cccc(N2CCN(C(=O)C3CCN(S(=O)(=O)c4c(C)noc4/C=C/c4ccccc4F)CC3)CC2)c1C", "activity change, negative = inhibition": "inactive: -17.9%"}, {"smiles": "O=C(Cn1ncc2c([nH]c3ccccc32)c1=O)Nc1cc(F)ccc1F", "activity change, negative = inhibition": "inactive: -5%"}, {"smiles": "O=C(Nc1nnc(S(=O)(=O)N2CCCCCC2)s1)c1ccc(Br)cc1", "activity change, negative = inhibition": "inactive: -8.7%"}, {"smiles": "CC(=O)c1ccc(NC2=NS(=O)(=O)c3ccccc32)cc1", "activity change, negative = inhibition": "inactive: -0.0269%"}, {"smiles": "Cc1cc(C)c(Cn2c3ccccc3c3cnn(CC(=O)NCCc4ccccc4)c(=O)c32)c(C)c1", "activity change, negative = inhibition": "inactive: -15.6%"}, {"smiles": "CCc1cccc(C)c1NS(=O)(=O)c1c(C(=O)N2CCCCCC2)c(C)n(C)c1C", "activity change, negative = inhibition": "inactive: -0.0588%"}, {"smiles": "COc1ccc(Cl)cc1NC(=O)Cn1nnc2sc3c(c2c1=O)CCC(C(C)(C)C)C3", "note": "(centres undefined)", "activity change, negative = inhibition": "inactive: -5.79%"}, {"smiles": "CCOC(=O)c1c(Nc2cccc(O)c2)nnc(-c2ccccc2)c1-c1ccccc1", "activity change, negative = inhibition": "inactive: -10.4%"}, {"smiles": "Cc1ccc(NC(=O)Cn2cc(S(=O)(=O)c3ccc(F)cc3)c(=O)c3cc4c(cc32)OCO4)cc1", "activity change, negative = inhibition": "inactive: -16.8%"}, {"smiles": "Cc1ccc(NC(=O)CSc2nccn2C2CCCC2)cc1", "activity change, negative = inhibition": "inactive: 9.36%"}, {"smiles": "CCOc1ccccc1C1CC(=O)NC(C)=C1C(=O)OC1CCCCCC1", "note": "(centres undefined)", "Potency": "active: 31.6 µM"}, {"smiles": "COc1cc(Cl)c(C)cc1NC(=O)CCCN1C(=O)C(c2ccccc2)Oc2cccnc21", "note": "(centres undefined)", "activity change, negative = inhibition": "inactive: -35.7%"}, {"smiles": "COCCNC(=O)Cn1c(=O)n(Cc2ccc(C(=O)NCCc3ccc(OC)c(OC)c3)cc2)c(=O)c2ccccc21", "activity change, negative = inhibition": "inactive: -6.51%"}, {"smiles": "Cc1cccc(Oc2nc3ccccn3c(=O)c2/C=C(\\C#N)c2nc3ccccc3s2)c1C", "activity change, negative = inhibition": "inactive: -1.69%"}, {"smiles": "COc1ccc(-n2c3c(c(=O)[nH]c2=O)C(NC(C)=O)(C(F)(F)F)C(=O)N3)cc1", "note": "(centres undefined)", "activity change, negative = inhibition": "inactive: -14.7%"}, {"smiles": "COc1ccc(NC(=O)C2CCCN(S(=O)(=O)c3cn(C)cn3)C2)cc1Cl", "note": "(centres undefined)", "activity change, negative = inhibition": "inactive: -29.4%"}, {"smiles": "CC(C)(C)C(=O)Cn1c(=O)n(CCCCCC(=O)NCc2ccc3c(c2)OCO3)c(=O)c2sccc21", "activity change, negative = inhibition": "inactive: -13.9%"}, {"smiles": "CCCCn1cc(S(=O)(=O)c2ccc(CC)cc2)c(=O)c2cc(F)c(N3CCCC(C)C3)cc21", "note": "(centres undefined)", "activity change, negative = inhibition": "inactive: -4.05%"}, {"smiles": "Cc1ccc(C(=O)CSc2nc3cc(C(=O)NC4CCCC4)ccc3c(=O)n2CC2CCCO2)cc1", "note": "(centres undefined)", "activity change, negative = inhibition": "inactive: 7.43%"}, {"smiles": "CSc1cccc(NS(=O)(=O)c2ccc3[nH]cc(C(=O)N4CCCC4)c(=O)c3c2)c1", "activity change, negative = inhibition": "inactive: 11.8%"}, {"smiles": "COc1cc(OC)c(NC(=O)c2c(C)nn(-c3ccc(C)cc3)c2-n2cccc2)cc1Cl", "activity change, negative = inhibition": "inactive: -7.78%"}, {"smiles": "COc1ccc(C(=O)NCCn2cc(SCC(=O)Nc3ccccc3)c3ccccc32)cc1OC", "activity change, negative = inhibition": "inactive: -20.9%"}, {"smiles": "Cc1cc(C)cc(NC(=O)C2CCCN2S(=O)(=O)c2ccc3c(c2)C(C)(C)C(=O)N3C)c1", "note": "(centres undefined)", "activity change, negative = inhibition": "inactive: -26.2%"}, {"smiles": "CCOC(=O)C1(C)C=C(Nc2ccc(OC)cc2)C(=O)N1c1ccccc1", "note": "(centres undefined)", "activity change, negative = inhibition": "inactive: 2%"}, {"smiles": "COc1ccccc1NC(=O)c1oc2ccccc2c1NC(=O)c1c(F)cccc1F", "activity change, negative = inhibition": "inactive: 7.16%"}, {"smiles": "Cc1cc(C)c(Cn2c3ccccc3c3cnn(CC(=O)NC4CCCCCC4)c(=O)c32)c(C)c1", "activity change, negative = inhibition": "inactive: -11.1%"}, {"smiles": "COc1ccc(Cn2cc(C(=O)c3ccc(Cl)cc3)c(=O)c3cc4c(cc32)OCO4)cc1", "activity change, negative = inhibition": "inactive: -25%"}, {"smiles": "CC(C)(Sc1cc(C(C)(C)C)c(O)c(C(C)(C)C)c1)Sc1cc(C(C)(C)C)c(O)c(C(C)(C)C)c1", "activity change, negative = inhibition": "inactive"}, {"smiles": "CCc1ccc(Nc2nn3c(=O)c4cc5c(cc4nc3s2)OCO5)cc1", "activity change, negative = inhibition": "inactive: 1.64%"}, {"smiles": "Cc1ccc(-n2nc3c(N4CCC(C(=O)N5CCC(C)CC5)CC4)nnc(C)c3c2C)cc1", "activity change, negative = inhibition": "inactive: -16.8%"}, {"smiles": "O=C(Nc1cccc(Cl)c1Cl)c1cc(S(=O)(=O)N2CCC3(CC2)OCCO3)ccc1F", "activity change, negative = inhibition": "inactive: -22.4%"}, {"smiles": "CC(C)Cn1c(=O)c2sccc2n2c(CCCC(=O)NCC(C)c3ccccc3)nnc12", "note": "(centres undefined)", "activity change, negative = inhibition": "inactive: -20.8%"}, {"smiles": "O=C(NCCN1CCN(c2ccccc2F)CC1)C1COc2ccccc2C1", "note": "(centres undefined)", "activity change, negative = inhibition": "inactive: -18.4%"}, {"smiles": "O=C(CSc1oc(-c2ccccc2)nc1S(=O)(=O)c1ccc(Br)cc1)NC1CCCCC1", "activity change, negative = inhibition": "inactive: -16.5%"}, {"smiles": "COc1ccc(CNC(=O)c2ccc3c(c2)N(Cc2ccccc2F)C(=O)c2ccccc2S3=O)cc1", "note": "(centres undefined)", "activity change, negative = inhibition": "inactive: -8.58%"}, {"smiles": "CC(=O)Nc1nonc1-c1nnc(SCc2ccccc2C)n1C", "activity change, negative = inhibition": "inactive: -28%"}, {"smiles": "CCOc1nc(NC(=O)NS(=O)(=O)Oc2cccc(F)c2)nc(-c2ccccc2)n1", "activity change, negative = inhibition": "inactive: 45.9%"}, {"smiles": "COc1cccc(-c2ccc3c(N)c(C(=O)Nc4ccc(Cl)cc4F)sc3n2)c1", "activity change, negative = inhibition": "inactive: -11.4%"}, {"smiles": "CCc1ccccc1NC(=O)Cc1ccc(-n2c(C)nc3cccnc32)cc1", "activity change, negative = inhibition": "inactive: -24.4%"}, {"smiles": "COc1ccc(OC)c(NC(=O)Cc2c(C(=O)O)[nH]c3ccc(Cl)cc23)c1", "activity change, negative = inhibition": "inactive: -11.1%"}, {"smiles": "Cc1ccc(C2=Nc3ccccc3N(CC(=O)NCc3ccc(Cl)cc3)C(=O)C2)cc1C", "activity change, negative = inhibition": "inactive: 39.7%"}, {"smiles": "O=C(c1ccc(Cl)cc1)N1CCCCC1CCN1CCOCC1", "note": "(centres undefined)", "activity change, negative = inhibition": "inactive: -14.1%"}, {"smiles": "Cc1ccc(C)c(N2CCN(C(=O)c3cc4c(=O)n(Cc5cccnc5)ccc4nc3C)CC2)c1", "activity change, negative = inhibition": "inactive: -16%"}, {"smiles": "COc1ccc(NC(=O)CSc2nc3ccccc3n2CC(=O)N2CCCC(C)C2)cc1", "note": "(centres undefined)", "activity change, negative = inhibition": "inactive: -17.7%"}, {"smiles": "CCn1c(=O)c2cc(C(=O)Nc3cc(C)c(Cl)cc3OC)sc2c2ccccc21", "activity change, negative = inhibition": "inactive: 0.871%"}, {"smiles": "Cc1cccc(C(=O)Nc2c(-c3ccc(F)cc3)nc3ccccn23)c1", "activity change, negative = inhibition": "inactive: -18.8%"}, {"smiles": "Cc1cc(C)n(-c2nc3cc(Cl)c(Cl)cc3nc2Nc2ccc(F)cc2C)n1", "activity change, negative = inhibition": "inactive: -14.4%"}, {"smiles": "CC(=O)N(Cc1cccnc1)c1nc2c(C)cc(C)cc2s1", "activity change, negative = inhibition": "inactive: -25.4%"}, {"smiles": "COc1ccc(CNC(=O)c2cc(-c3cccs3)nc3ccccc23)c(OC)c1", "activity change, negative = inhibition": "inactive: -4.26%"}, {"smiles": "CCOC(=O)c1sc(NC(=O)c2nc3ncccn3n2)c(C(=O)OC(C)C)c1C", "activity change, negative = inhibition": "inactive: -20.9%"}, {"smiles": "CC1CCc2c(sc3nnn(Cc4ccccc4)c(=O)c23)C1", "note": "(centres undefined)", "activity change, negative = inhibition": "inactive: -20.1%"}, {"smiles": "Cc1ccc(-c2nc3ccccn3c2Nc2c(C)cccc2C)o1", "activity change, negative = inhibition": "inactive: -29.8%"}]}]}
